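The compound was tested at five concentrations on cells cultured in 96-well plates, with a 48-hour exposure period. Abbreviation: GI50, concentration required for 50% inhibition of growth. At the TGI there is no net growth.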
System: NCI-H322M lung
Assay: NCI-60 cell line screen, 48 h

CN(C)c1nc(NCCNS(=O)(=O)c2ccc(C3=Nc4c(N)nc(N)nc4NC(c4ccc(F)cc4)C3)cc2)nc(Nc2ccc(F)cc2)n1 (configuration not stated)
GI50: > 100 µM | TGI: > 100 µM
